Assay results: a collection of fitness landscapes (doi:10.1126/science.1257360)
Some of the results follow.

B1: PhoQ; a variant is named by its letters at X, in order, P23837 (parent)
chain: MKKLLRLFFPLSLRVRFLLATAAVVLVLSLAYGMVALIGYSVSFDKTTFRLLRGESNLFYTLAKWENNKLHVELPENIDKQSPTMTLIYDENGQLLWAQRDVPWLMKMIQPDWLKSNGFHEIEADVNDTSLLLSGDHSIQQQLQEVREDDDDAEMTHSVAVNVYPATSRMPKLTIVVVDTIPVELKSSYMVWSWFIYVLSANLLLVIPLLWVAAWWSLRPIEALAKEVRELEEHNRELLNPATTRELTSLVRNLNRLLKSERERYDKYRTTLTDLTHSLKTPLXXLQXXLRSLRSEKMSVSDAEPVMLEQISRISQQIGYYLHRASMRGGTLLSRELHPVAPLLDNLTSALNKVYQRKGVNISLDISPEISFVGEQNDFVEVMGNVLDNACKYCLEFVEISARQTDEHLYIVVEDDGPGIPLSKREVIFDRGQRVDTLRPGQGVGLAVAREITEQYEGKIVAGESMLGGARMEVIFGRQHSAPKDE

Variants of: B1
Assay: enrichment ratio after two sorts for PhoP signalling (ratio (wild type AVST 3.29)); higher = more functional
Details: with PhoP (E. coli)

| Variant | enrichment ratio |
| --- | --- |
| MRDK | ≤ 0.25 |
| MAMN | ≤ 0.25 |
| MIAA | 11.7 |
| NGCW | ≤ 0.25 |
| VMIL | ≤ 0.25 |
| QKSK | ≤ 0.25 |
| IPRV | ≤ 0.25 |
| KFIC | ≤ 0.25 |
| QFLN | ≤ 0.25 |
| PENL | ≤ 0.25 |
| QMWL | ≤ 0.25 |
| ERDF | ≤ 0.25 |
| SNYG | ≤ 0.25 |
| GPQA | ≤ 0.25 |
| IYQF | ≤ 0.25 |
| GWEH | ≤ 0.25 |
| RCFI | ≤ 0.25 |
| HGIW | ≤ 0.25 |
| KHRA | ≤ 0.25 |
| VAYW | ≤ 0.25 |
| NRES | ≤ 0.25 |
| DCPE | ≤ 0.25 |
| LNLF | ≤ 0.25 |
| QGMA | ≤ 0.25 |
| QHDN | ≤ 0.25 |
| MGPR | ≤ 0.25 |

| Variant | enrichment ratio |
| --- | --- |
| QHYV | ≤ 0.25 |
| MSRI | ≤ 0.25 |
| HMML | 3.47 |
| FYCL | ≤ 0.25 |
| ETQG | ≤ 0.25 |
| GGRV | ≤ 0.25 |
| LTFD | ≤ 0.25 |
| KSHQ | ≤ 0.25 |
| WVGR | ≤ 0.25 |
| MHVG | ≤ 0.25 |
| DYEP | ≤ 0.25 |
| QIQF | ≤ 0.25 |
| YNID | ≤ 0.25 |
| YGLL | 8.88 |
| LGKM | ≤ 0.25 |
| YWQA | ≤ 0.25 |
| DPRL | ≤ 0.25 |
| LYTA | ≤ 0.25 |
| RKDD | ≤ 0.25 |
| YHTT | ≤ 0.25 |
| IIAC | ≤ 0.25 |
| PAHN | ≤ 0.25 |
| RKEA | ≤ 0.25 |
| EKRL | ≤ 0.25 |
| FLFT | ≤ 0.25 |
| HYLE | ≤ 0.25 |

| Variant | enrichment ratio |
| --- | --- |
| PWFS | ≤ 0.25 |
| RASP | ≤ 0.25 |
| YGLP | ≤ 0.25 |
| KMDG | ≤ 0.25 |
| EVWP | ≤ 0.25 |
| VYVS | ≤ 0.25 |
| DSFQ | ≤ 0.25 |
| MMRD | ≤ 0.25 |
| DPFC | ≤ 0.25 |
| DIQH | ≤ 0.25 |
| WNFM | ≤ 0.25 |
| RERV | ≤ 0.25 |
| HKFF | ≤ 0.25 |
| VRGM | ≤ 0.25 |
| LVMV | ≤ 0.25 |
| VDAN | ≤ 0.25 |
| VFFV | ≤ 0.25 |
| IVMG | ≤ 0.25 |
| IHEA | ≤ 0.25 |
| YALR | ≤ 0.25 |
| RCQE | ≤ 0.25 |
| IFKT | ≤ 0.25 |
| MMIQ | ≤ 0.25 |
| ILNF | ≤ 0.25 |
| WQHD | ≤ 0.25 |
| MQAG | 4.33 |

| Variant | enrichment ratio |
| --- | --- |
| DIML | ≤ 0.25 |
| QALH | ≤ 0.25 |
| SDKR | ≤ 0.25 |
| QADI | ≤ 0.25 |
| YCFS | ≤ 0.25 |
| NEWV | ≤ 0.25 |
| DFKF | ≤ 0.25 |
| FMSC | ≤ 0.25 |
| FVSY | ≤ 0.25 |
| LSAG | ≤ 0.25 |
| PTSR | ≤ 0.25 |
| KLVE | ≤ 0.25 |
| IVCR | ≤ 0.25 |
| AAVK | ≤ 0.25 |
| MKSI | ≤ 0.25 |
| EQPN | ≤ 0.25 |
| LTNL | 0.338 |
| TMVA | ≤ 0.25 |
| SRQS | ≤ 0.25 |
| VHWI | ≤ 0.25 |
| QFFP | ≤ 0.25 |
| TLDP | ≤ 0.25 |
| QTYA | ≤ 0.25 |
| DTLI | 0.823 |
| AIWL | ≤ 0.25 |
| PGKW | ≤ 0.25 |

| Variant | enrichment ratio |
| --- | --- |
| SVSV | 8.24 |
| DMII | ≤ 0.25 |
| HLWS | ≤ 0.25 |
| HWRM | ≤ 0.25 |
| INIS | ≤ 0.25 |
| LRPE | ≤ 0.25 |
| RSQC | ≤ 0.25 |
| HWKS | ≤ 0.25 |
| EYNR | ≤ 0.25 |
| TPVL | ≤ 0.25 |
| LSCF | ≤ 0.25 |
| YQEI | ≤ 0.25 |
| ATIV | 8.37 |
| IIRQ | ≤ 0.25 |
| TTFH | 2.3 |
| ANIQ | 11 |
| HFVA | ≤ 0.25 |
| NCPA | ≤ 0.25 |
| EHQH | ≤ 0.25 |
| YFEN | ≤ 0.25 |
| MYCI | ≤ 0.25 |
| KLTP | ≤ 0.25 |
| LYTE | ≤ 0.25 |
| PCFM | ≤ 0.25 |
| VFQT | ≤ 0.25 |
| YVVR | ≤ 0.25 |

| Variant | enrichment ratio |
| --- | --- |
| RVIM | ≤ 0.25 |
| EFKC | ≤ 0.25 |
| MGDD | ≤ 0.25 |
| ACCF | 1.93 |
| EDTY | ≤ 0.25 |
| HDSL | ≤ 0.25 |
| YQPE | ≤ 0.25 |
| HPNH | ≤ 0.25 |
| DGFR | ≤ 0.25 |
| DMAS | ≤ 0.25 |
| YKVQ | ≤ 0.25 |
| IWAR | ≤ 0.25 |
| EKVN | ≤ 0.25 |
| NSNS | ≤ 0.25 |
| TCAY | 14.1 |
| HWCE | ≤ 0.25 |
| GDHI | ≤ 0.25 |
| SYAE | ≤ 0.25 |
| YFSI | ≤ 0.25 |
| PHHT | ≤ 0.25 |
| TATM | 27 |
| KNCL | ≤ 0.25 |
| LYTW | ≤ 0.25 |
